Consider two substances from paper PMC6377148.

Chains of the proteins cited; added tags and fusions are not shown.
UniProt P49336: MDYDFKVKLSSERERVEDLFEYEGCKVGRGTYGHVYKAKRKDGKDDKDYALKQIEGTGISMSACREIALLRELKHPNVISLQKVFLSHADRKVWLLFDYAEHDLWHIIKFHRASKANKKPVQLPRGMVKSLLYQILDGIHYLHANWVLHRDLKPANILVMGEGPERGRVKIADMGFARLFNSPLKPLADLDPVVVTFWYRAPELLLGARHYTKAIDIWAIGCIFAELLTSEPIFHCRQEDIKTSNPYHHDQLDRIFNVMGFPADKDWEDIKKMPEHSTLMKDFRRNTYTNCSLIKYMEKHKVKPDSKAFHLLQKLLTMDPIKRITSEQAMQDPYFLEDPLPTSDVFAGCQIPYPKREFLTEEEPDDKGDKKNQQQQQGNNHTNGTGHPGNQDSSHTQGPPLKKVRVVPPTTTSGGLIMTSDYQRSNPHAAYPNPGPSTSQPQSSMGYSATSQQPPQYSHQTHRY
UniProt Q7Z2Z1: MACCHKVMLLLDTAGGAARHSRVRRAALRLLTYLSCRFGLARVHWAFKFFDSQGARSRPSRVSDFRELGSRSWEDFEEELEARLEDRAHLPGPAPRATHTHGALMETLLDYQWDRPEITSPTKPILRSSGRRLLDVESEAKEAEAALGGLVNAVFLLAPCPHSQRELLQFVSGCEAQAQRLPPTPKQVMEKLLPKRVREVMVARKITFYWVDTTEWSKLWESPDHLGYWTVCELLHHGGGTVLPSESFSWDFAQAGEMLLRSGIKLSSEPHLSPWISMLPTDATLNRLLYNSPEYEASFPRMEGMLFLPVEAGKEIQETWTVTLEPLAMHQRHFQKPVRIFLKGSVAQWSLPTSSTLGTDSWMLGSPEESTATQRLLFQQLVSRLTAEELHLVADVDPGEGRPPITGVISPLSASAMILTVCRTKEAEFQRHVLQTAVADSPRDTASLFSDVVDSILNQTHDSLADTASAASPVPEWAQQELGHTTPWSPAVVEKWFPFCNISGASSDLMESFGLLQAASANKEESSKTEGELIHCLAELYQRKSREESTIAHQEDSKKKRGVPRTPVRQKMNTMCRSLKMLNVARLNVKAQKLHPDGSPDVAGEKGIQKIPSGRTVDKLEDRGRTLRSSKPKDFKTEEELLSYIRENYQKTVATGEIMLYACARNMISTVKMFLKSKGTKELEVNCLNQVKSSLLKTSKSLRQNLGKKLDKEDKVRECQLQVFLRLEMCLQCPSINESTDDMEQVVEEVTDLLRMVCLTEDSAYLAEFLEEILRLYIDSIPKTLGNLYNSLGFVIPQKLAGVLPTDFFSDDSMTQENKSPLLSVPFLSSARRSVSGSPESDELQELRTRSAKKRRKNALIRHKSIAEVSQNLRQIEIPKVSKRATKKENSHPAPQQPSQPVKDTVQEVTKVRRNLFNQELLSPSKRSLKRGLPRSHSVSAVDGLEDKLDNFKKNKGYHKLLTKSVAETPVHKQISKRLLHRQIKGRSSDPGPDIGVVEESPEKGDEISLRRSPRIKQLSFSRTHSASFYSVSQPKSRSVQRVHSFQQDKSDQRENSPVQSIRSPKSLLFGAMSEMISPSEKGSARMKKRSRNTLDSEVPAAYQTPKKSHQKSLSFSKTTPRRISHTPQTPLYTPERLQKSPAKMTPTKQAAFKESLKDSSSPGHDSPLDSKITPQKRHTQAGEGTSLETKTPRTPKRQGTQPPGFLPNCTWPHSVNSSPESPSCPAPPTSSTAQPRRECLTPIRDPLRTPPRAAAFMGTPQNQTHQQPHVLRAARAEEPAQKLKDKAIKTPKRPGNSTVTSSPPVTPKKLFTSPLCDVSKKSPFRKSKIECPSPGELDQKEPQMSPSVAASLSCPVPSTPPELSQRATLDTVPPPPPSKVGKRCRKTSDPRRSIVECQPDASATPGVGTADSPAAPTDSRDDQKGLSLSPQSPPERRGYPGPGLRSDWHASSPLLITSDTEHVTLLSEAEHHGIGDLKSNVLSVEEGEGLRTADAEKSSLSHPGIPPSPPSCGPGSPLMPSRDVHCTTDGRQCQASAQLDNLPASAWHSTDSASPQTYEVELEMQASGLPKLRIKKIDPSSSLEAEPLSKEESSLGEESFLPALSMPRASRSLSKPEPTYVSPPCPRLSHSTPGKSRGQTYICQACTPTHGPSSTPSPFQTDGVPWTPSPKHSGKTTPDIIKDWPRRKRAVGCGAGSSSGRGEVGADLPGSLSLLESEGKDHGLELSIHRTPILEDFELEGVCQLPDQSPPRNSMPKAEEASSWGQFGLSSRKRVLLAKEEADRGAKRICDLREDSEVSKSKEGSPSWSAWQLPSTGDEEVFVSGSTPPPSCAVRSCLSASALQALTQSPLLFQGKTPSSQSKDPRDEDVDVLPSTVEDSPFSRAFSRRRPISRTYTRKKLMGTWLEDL

Experiment in all cases: co-IP; 293T transiently transfected with C-terminally 3×Flag-tagged MTBP; anti-FLAG antibody on Protein G Dynabeads, lysis buffer 20 mM HEPES, 150 mM NaCl, 10% glycerol, 0.1% Triton X-100, 1 h at 4°C; endogenous Treslin/TICRR and Cdk8 by immunoblot
In general terms: A western blot detects proteins with antibodies after separation by electrophoresis.

Experiment [1] deals with T1, MTBP I309D, C-terminally 3×Flag-tagged (293T) (human) (UniProt Q96DY7).
T1 sequence: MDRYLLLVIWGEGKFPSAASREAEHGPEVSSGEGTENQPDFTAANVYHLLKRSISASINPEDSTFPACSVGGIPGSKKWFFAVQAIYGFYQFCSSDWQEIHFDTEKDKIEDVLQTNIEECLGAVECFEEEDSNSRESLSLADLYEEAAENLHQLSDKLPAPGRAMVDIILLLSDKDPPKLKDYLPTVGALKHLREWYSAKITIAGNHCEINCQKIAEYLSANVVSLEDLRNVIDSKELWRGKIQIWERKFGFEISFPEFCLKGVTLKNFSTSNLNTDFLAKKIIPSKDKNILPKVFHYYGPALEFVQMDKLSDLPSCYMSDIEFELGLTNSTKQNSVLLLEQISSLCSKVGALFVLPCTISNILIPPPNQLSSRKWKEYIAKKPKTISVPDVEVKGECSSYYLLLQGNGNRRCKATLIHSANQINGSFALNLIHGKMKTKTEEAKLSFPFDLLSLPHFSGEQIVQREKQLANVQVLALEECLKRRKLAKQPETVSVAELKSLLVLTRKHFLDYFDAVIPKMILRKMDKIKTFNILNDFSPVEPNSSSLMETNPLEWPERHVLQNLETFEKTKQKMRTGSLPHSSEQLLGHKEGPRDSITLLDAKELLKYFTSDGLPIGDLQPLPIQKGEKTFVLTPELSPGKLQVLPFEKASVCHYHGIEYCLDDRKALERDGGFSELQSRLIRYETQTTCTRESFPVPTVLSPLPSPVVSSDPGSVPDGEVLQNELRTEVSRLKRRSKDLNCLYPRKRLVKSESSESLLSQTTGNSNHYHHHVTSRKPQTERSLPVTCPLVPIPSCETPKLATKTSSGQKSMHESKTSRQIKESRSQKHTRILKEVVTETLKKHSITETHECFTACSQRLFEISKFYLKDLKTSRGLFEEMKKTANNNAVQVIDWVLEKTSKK

In experiment [2] the target is T2, MTBP D313A, C-terminally 3×Flag-tagged (293T) (human) (UniProt Q96DY7).
T2 sequence: T1 sequence with D309I, D313A

Experiment [3] addresses T3, MTBP-m2 (A415Q), C-terminally 3×Flag-tagged (293T) (human) (UniProt Q96DY7).
T3 sequence: T1 sequence with D309I, A415Q

Numbering of substitutions follows the chain as printed. These are yes or no findings as the source states them, for the method shown. Binding seen in cells or lysates may run through a third protein. Some binding calls cover weakened binding; strength is not graded here. Tags and fused reporters may be left off the sequences shown.

In the case of “Cdk8 (cyclin-dependent kinase 8), endogenous (from UniProt P49336 1-464) (enzyme)”, the binding entry in experiment [1], in experiment [2] and in experiment [3] was “binds” in each case.
For “Treslin/TICRR (TopBP1-interacting replication stimulating protein/TopBP1-interacting checkpoint and replication regulator), endogenous (from UniProt Q7Z2Z1 1-1910)”, the binding entry is listed as “no binding” in experiment [1], “binds” in experiment [2] and “no binding” in experiment [3].
